This note sets out measurements from paper PMC12136788.

T1: UNK ZnF1-3 (human, UniProt Q9C0B0 31-174)
T1 sequence: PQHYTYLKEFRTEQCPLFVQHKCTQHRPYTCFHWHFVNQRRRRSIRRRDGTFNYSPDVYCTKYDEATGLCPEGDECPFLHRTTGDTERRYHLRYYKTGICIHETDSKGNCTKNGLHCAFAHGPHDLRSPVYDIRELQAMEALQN

B1: chr7:150251850:150251851:+_ENSMUSG00000037706_ENSMUST00000037941|mus_hu|FALSE|FALSE (ssRNA)
RNA: GGGAGUUCUACAGUCCGACGAUCAAAGCCCCAGAUGCCGGCGGCCACCUCACAGGCAAACAGGAUGACCAGGCAGGUGAAGAACGUCCCCAGCAGGCACUGGGAUUCCUGGAUGGCCCCGUAGCAGCCCAGGAAGCCAACGAACAACAGAGGAUUGAGCAUCA
B2: chr7:141445308:141445309:+_ENSG00000106028_ENST00000265304|hu_hu|hu_hu_hu_mus_False|28_88 (ssRNA)
RNA: GGGAGUUCUACAGUCCGACGAUCUAUGAUUGUUGUUGCUUGCCGCCUCACAUUAUUUUUAUCCAUGUACUCGCCAUAGUCCACUUUCCCUUCCACAAAUAUACGAGACCCCUUUUUCACAUACUGAUAUGCCACAUCUCUGAGCAACAGAGGAUUGAGCAUCA
B3: 72957486_72958841_795_CDS_ENSMUSG00000036698_ENSMUST00000044113|mouse|control|control (ssRNA)
RNA: GGGAGUUCUACAGUCCGACGAUCUGGCUGUGCCUUGUAAAACGCUGUUGCCGAUACAUCAAUAUUCAGCAUCAUUUUCCAAAGAGAAGGUCGGACGGACUGAUGGAAGCCAAACCACACUUCUCUGCCCCCACCCAGAGGGUUCAACAGAGGAUUGAGCAUCA
B4: chr7:90019630:90019631:+_ENSMUSG00000057706_ENSMUST00000082237|mus_hu|FALSE|FALSE (ssRNA)
RNA: GGGAGUUCUACAGUCCGACGAUCUAUAUCACUGAAUAGAAAAUAUGCUGGGUGAAGCAGAUCUAGAAGAUUUGUCUGAACCUAUAAAAUCUCCAUCCCAACAGAAUACUGUUCAAAACAUUACACAUUUUAUGGUUGUAAUUCCAACAGAGGAUUGAGCAUCA
B5: 24660304_24660424_358_ncRNA_ENSMUSG00000036893_ENSMUST00000134775|mouse|control|control (ssRNA)
RNA: GGGAGUUCUACAGUCCGACGAUCAUGUUCAUGGGGGAUGUCACACAGUUCUGGGAGACAUACUUAUAGUUGGUAGGACACAGCUCACUGUCCACAGCAUUGACACAGGGAAUGGGAAUGCGCUCAUACCCUCGAGCGAUAUCCCAACAGAGGAUUGAGCAUCA
B6: chr4:140556289:140556290:+_ENSMUSG00000036622_ENSMUST00000037055|mus_mus|mus_mus_mus_hu_False|8_88 (ssRNA)
RNA: GGGAGUUCUACAGUCCGACGAUCGAUGGAGCUCACCAGGCCCCCUUUGGCUGUGCAGAACCCUGUGCGGGUCACCACUGCCAGGACGUGCGGUCCCACAUAGGCCCGGGCCUGCAAGAUGAGGGUCCCACAGAAGAGUGUGUGCAACAGAGGAUUGAGCAUCA

This is one part of the list.

This assay has as its target T1, UNK ZnF1-3. In words: nsRBNS (natural sequence RNA bind-n-seq); RBNS binding buffer (assumed for nsRBNS): 25 mM Tris pH 7.5, 150 mM KCl, 3 mM MgCl2, 0.01% Triton X-100, 500 ug/ml BSA, 20 U/ml SUPERase-In, 4 C; UNK is unkempt and MSI1 is Musashi-1; names of the RNAs are library labels; protein concentration not given here; high values mean tight binding.
Take B1: the binding signal was 1.28 enrichment R.

B2 had a binding signal of 0.774 enrichment R. B3 came in with a binding signal of 1.17 enrichment R.

With B4, the binding signal came out at 0.715 enrichment R. With B5 the figure was 1.01 enrichment R; with B6, 0.898 enrichment R.
